This passage reports binding signal results from PMC10668032.

This is one part of the list. At the low end of the ranking, values are background and their order means little.

In the assay the target is SIX1 homeodomain (reference allele) (UniProt Q15475). Description: universal protein binding microarray. As to conditions: Universal all-10-mer PBM (8x60K, AMADID 030236), 300 nM GST-tagged protein, Alexa Fluor 488 anti-GST; buffer, salt, pH and temperature not stated; high values mean tight binding; most listed sequences are background and not binding sites; double strand, one strand shown.
Take ATCTTCGA: the binding signal came out at 0.193 E-score.
In the case of GGGCACCC it was 0.000475 E-score; in that of AAAATGGC, -0.176 E-score.
In the case of GCCGGACA, the binding signal is -0.122 E-score.
For GTAAGTCA, the binding signal was -0.201 E-score.
As for TAGACTCA, the binding signal is -0.0831 E-score.
In the case of AGGTAGAG it was -0.124 E-score; in that of AACCTACC, -0.047 E-score; in that of ATTAACTG, 0.0705 E-score.
As for AGCTTCTG, the binding signal was -0.0355 E-score.
In the case of GCTAGTTA it was -0.124 E-score; in that of CCCCAAAC, -0.0898 E-score.
In the case of ATTGGGCA it was -0.0995 E-score; in that of CTCACATC, 0.0249 E-score.
Turning to CCGATGAA, the binding signal came out at 0.014 E-score.
In the case of GGCTAGCC it was 0.0579 E-score.
With AAACAACA the figure was -0.113 E-score; with AGGGCCGA, -0.00617 E-score.
In the case of AATTTGCA, the binding signal is -0.0823 E-score.
With ACGCACTG the figure was -0.0973 E-score; with CCAGATAG, 0.14 E-score.
In the case of GGCTCCAC it was -0.144 E-score; in that of TAGGCAAA, -0.174 E-score; in that of AGTCTATC, 0.00881 E-score.
With AGCTAGCT the figure was 0.0399 E-score; with CGTAGCTC, 0.0539 E-score; with CGCAAAAA, 0.0219 E-score.
TGTTCCAA: the binding signal is -0.135 E-score.
With CGTAAAGA the figure was -0.221 E-score; with CGCCTTTA, 0.136 E-score.
With AACTGTCG the figure was -0.0942 E-score.
In the case of AAATTGGT it was -0.108 E-score.
Turning to GCTCACCC, the binding signal came out at 0.0863 E-score.
Take CATTGACA: the binding signal is -0.059 E-score.
In the case of ATTAAGCA it was -0.0802 E-score; in that of GGCAATTA, -0.00217 E-score; in that of CACAGAGG, -0.0106 E-score.
With CAGCTTTA the figure was -0.109 E-score; with ACGTGCTG, 0.0415 E-score.
Turning to TACGAGCA, the binding signal was -0.0092 E-score.
In the case of AAGCCCCA it was -0.055 E-score.
As for ACGTTCAG, the binding signal is -0.237 E-score.
With GACCGCTA, the binding signal was -0.0055 E-score.
With CTACGGCA the figure was -0.246 E-score; with CATGAAGA, 0.0648 E-score.
In the case of ATTATCCG it was 0.351 E-score.
With AAAAGGTA the figure was -0.04 E-score; with ACTGGGAG, 0.036 E-score.
Turning to ATTGCAAT, the binding signal was determined as 0.0324 E-score.
With CCCGGTAA the figure was 0.0147 E-score; with CGTAATCC, 0.276 E-score.
With GGCATGCA the figure was -0.153 E-score.
With AAAGACTT the figure was -0.309 E-score.
For ACTAACTC, the binding signal was -0.225 E-score.
With GTGCGCTA the figure was -0.172 E-score; with AAAAAGAA, -0.163 E-score.
With CAAAAACC the figure was -0.000125 E-score.
For GATCAGAC, the binding signal stood at 0.249 E-score.
Turning to CCTGGGCC, the binding signal was -0.106 E-score.
As to GACAGGAC, the binding signal is -0.368 E-score.
With ATTAGAAA the figure was -0.12 E-score; with CGCGAAAG, -0.0786 E-score.
In the case of AAGGCGTG it was -0.09 E-score; in that of CTATTTAC, -0.0352 E-score.
With CGGAAGAC the figure was -0.0635 E-score; with CGTAGTTC, -0.325 E-score; with CGGTTCAA, -0.0401 E-score.
Regarding ACCAGGCG, the binding signal was -0.0427 E-score.
In the case of CACCTAAG it was 0.17 E-score; in that of AGCTACAA, -0.139 E-score.
In the case of CAGCCGCA it was -0.0858 E-score.
With GGGGATAC the figure was 0.44 E-score; with AACAATGG, -0.166 E-score; with CTTTATGA, -0.0868 E-score.
AGTCGAGA: the binding signal is -0.0434 E-score.
With CAGTTACA the figure was -0.0345 E-score.
On to ACGGTCAC, for which the binding signal was -0.25 E-score.
In the case of ACGTGTCG it was -0.11 E-score; in that of GCACTACC, 0.0323 E-score.
In the case of GCACTTGA it was -0.0358 E-score; in that of AATACTTA, 0.0609 E-score.
In the case of ACGGTAAA it was -0.217 E-score.
With ATAACTGA, the binding signal amounted to 0.0924 E-score.
As to CACTCGGA, the binding signal came to 0.194 E-score.
Take GTCCGAGA: the binding signal was 0.0174 E-score.
In the case of AAGTAATT it was -0.132 E-score.
In the case of CGCCTAAG it was -0.245 E-score.
Regarding CCTTTCTA, the binding signal was -0.0641 E-score.
In the case of ATGCCAGA it was 0.0745 E-score.
With ACCGTTTC the figure was -0.109 E-score; with CAAAGCTA, -0.0713 E-score; with CGATGAGC, 0.0262 E-score.
In the case of CCATCCAA it was 0.0914 E-score; in that of ATCCGTGG, 0.295 E-score.
Consider ATCGTACG, for which the binding signal came out at 0.132 E-score.
For the sequence ACCCTTCT, the binding signal amounted to 0.224 E-score.
With TTGCCCAA the figure was -0.0948 E-score; with GTCGTCCA, -0.136 E-score.
In the case of GTAATCTA it was 0.15 E-score; in that of GAAAAAGA, -0.173 E-score.
In the case of AGATTGCG it was -0.0727 E-score; in that of CGTTAATA, 0.0475 E-score; in that of GGTGTAAA, 0.198 E-score.
Consider GACTGTCC, for which the binding signal is -0.25 E-score.
With ATGGGCAA the figure was -0.0761 E-score; with GCCCATCA, -0.142 E-score.
In the case of GCCTACGC it was 0.0164 E-score; in that of CATTTAGA, -0.0313 E-score; in that of GACGTAGC, 0.0367 E-score.
In the case of TCTAGGAA it was -0.107 E-score.
Regarding AGCAGACG, the binding signal is -0.209 E-score.
With AATATTCT the figure was 0.0285 E-score; with ATTTTACA, -0.162 E-score.
In the case of GAGCTATC it was 0.282 E-score; in that of CTCTATAA, -0.0753 E-score; in that of CTTCCAAA, -0.226 E-score.
Take GCTGCACC: the binding signal was -0.0757 E-score.
As to CTATCTTC, the binding signal worked out at 0.107 E-score.
With TCGGCCCA the figure was -0.139 E-score.
As for ACCTAATG, the binding signal was -0.0118 E-score.
With ACCTGTGA the figure was 0.00985 E-score; with CCTCTGCA, -0.0762 E-score; with TTCATAAA, -0.192 E-score.
In the case of GCAGTCCA it was -0.213 E-score; in that of ACTTTCAG, -0.111 E-score; in that of ATAACGCA, 0.0308 E-score.
With ACCGCGCG the figure was 0.175 E-score.
With TTAGATAA, the binding signal amounted to 0.133 E-score.
With GGCTATGA, the binding signal was -0.101 E-score.
In the case of GGGCGACC it was -0.0587 E-score.
In the case of CCGGCCCA it was -0.156 E-score.
As to GTGATATA, the binding signal was 0.419 E-score.
In the case of AGCATTGG it was -0.204 E-score; in that of AACCCCCA, -0.119 E-score; in that of AAAGTCGG, -0.223 E-score.
In the case of CTAAGGTA it was 0.0753 E-score.
With CTTATTCC the figure was -0.0854 E-score; with AACCATAG, -0.157 E-score; with GCGGTGCC, -0.0843 E-score.
Turning to CATTTCGC, the binding signal is -0.0436 E-score.
In the case of AGCCAGAA it was -0.27 E-score; in that of CCTAGTAG, -0.0213 E-score; in that of ATTGAAGG, -0.15 E-score.
In the case of ACGAGTCA it was -0.222 E-score; in that of CGGGACAC, 0.153 E-score.
In the case of AATGAGCA it was -0.177 E-score; in that of AAGGCATA, -0.0161 E-score.
Take CATCCTCA: the binding signal is 0.0138 E-score.
In the case of GGAAGCAC it was -0.2 E-score; in that of AGGTCCAC, -0.307 E-score.
ACAGATCG: the binding signal was 0.235 E-score.
In the case of GATCCGTA it was 0.383 E-score; in that of ATGTCTAA, -0.00734 E-score.
In the case of AAGAACAC it was -0.0346 E-score.
In the case of GTGGATAA it was 0.249 E-score; in that of CTTAGACA, -0.118 E-score; in that of CATCTAAG, 0.178 E-score.
As to GATGGGAC, the binding signal was -0.0817 E-score.
With CACCCCCC the figure was 0.0352 E-score.
In the case of TCCTCGCA it was -0.174 E-score; in that of ACGGCACC, -0.2 E-score; in that of ACCGGCGT, -0.0532 E-score.
In the case of ATCTCTTC it was 0.237 E-score; in that of CTTGCGCC, -0.198 E-score; in that of ATATACAT, 0.301 E-score.
Turning to CCCGATGA, the binding signal was 0.226 E-score.
In the case of ACCTAGAC it was -0.14 E-score; in that of GTCATAGA, -0.0374 E-score; in that of AGAGTCAG, -0.15 E-score.
AGGCTTGC: the binding signal was -0.22 E-score.
Take CGCTCAGA: the binding signal is -0.133 E-score.
For ACAAGCGC, the binding signal is -0.31 E-score.
